Experimental findings from ChEMBL document CHEMBL4888484, “Replenishing the malaria drug discovery pipeline: Screening and hit evaluation of the MMV Hit Generation Library 1 (HGL1) against asexual blood stage Plasmodium falciparum ,using a nano luciferase reporter read-out” (2022) are described below.

In all, about 150,000 compounds went through this assay and about 540 (0.36%) showed an effect of 50% or more. The list shows a part of the results.

The test system of the test is Plasmodium falciparum. Description: Primary screen in NF54 nanoGlo assay, in single point, at 2uM, 72h; a lower Z score goes with more inhibition. In kind it is functional, Erythrocyte. The settings on record: timepoint 72 hour.
Usually % Inhibition stands for the relative decrease from the control value, in per cent. As for `NC(=O)c1ccnc(-c2cc(NCc3ccccn3)nc3[nH]ccc23)c1`, the “% Inhibition” value is -11% and the Z score is given as 1.49.

With `COc1c2c(cc3c1[C@H](c1nnnn1C(c1ccccc1)c1ccccc1)[N+](C)(C)CC3)OCO2`, the “% Inhibition” value is reported as -1% and the Z score was 0.07.

Take `Cc1ccc(-c2nc(N3CCN(C(=O)COCc4ccccc4)CC3)c3ccc(Cl)cc3n2)cc1`: the “% Inhibition” value was -15% and the Z score is 1.38.

Take `O=S(=O)(c1cccc(-c2ccccc2)c1)N1CC2(CCNCC2)[C@@H]2COC[C@@H]21`: the “% Inhibition” value was -9% and the Z score was 1.35.

For `COc1cc(CC(=O)N2CCC[C@@](F)(C(=O)NCc3cccnc3)C2)cc(OC)c1`, the “% Inhibition” value is -30% and the Z score is given as 2.62.

For the molecule `CN(C)c1cccc(Cn2ccnc2C#N)n1`, the “% Inhibition” value is listed as -6% and the Z score is 0.92.

In the case of `N[C@H]1CCCN(C(=O)CCCc2ccccn2)C1`, the “% Inhibition” value is reported as -11% and the Z score is 1.43.

Regarding `CCc1noc(Cc2c(C)[nH]c3c(C)ccc(C)c23)n1`, the “% Inhibition” value is -3% and the Z score is 0.56.

`CC(C)n1cc(C(=O)N[C@H]2CCN(C(=O)OCc3ccccc3)C2)cn1`: the “% Inhibition” value worked out at 2% and the Z score is on record as -0.28.

For `O=C(CCn1c(=O)cc(C(F)F)c2cn(Cc3ccccc3)nc21)NC1CCCC1`, the “% Inhibition” value amounted to 3% and the Z score is on record as -0.39.

As to `CCOC(=O)CN(CC(=O)NCc1ccc2c(c1)OCO2)C(C)(C)C`, the “% Inhibition” value is -13% and the Z score stood at 1.71.

For the molecule `O=C(Cc1ccc(F)cc1F)N1CC(CN2C(=O)CCC2=O)C1`, the “% Inhibition” value was -13% and the Z score amounted to 1.67.

As for `Cc1cc(NC(=O)Cn2c(=O)c(C(F)(F)F)cn(C(C)C)c2=O)no1`, the “% Inhibition” value is given as -21% and the Z score was 2.62.

Take `CCc1cc(NC(=O)NC2CCN(c3ccc(C(C)(C)C)cc3)CC2)n(C)n1`: the “% Inhibition” value is -3% and the Z score is reported as 0.31.

Consider `CC(C)CNC(=O)c1cc2cc(NC(=O)c3ccc(C(C)(C)C)cc3)ccc2n1Cc1ccc(C(C)(C)C)cc1`, for which the “% Inhibition” value is recorded as -3% and the Z score turned out to be 0.34.

In the case of `COC(=O)CN1CCN(C(=O)c2[nH]c3ccc(C)cc3c2C)CC1=O`, the “% Inhibition” value was -7% and the Z score came to 0.59.

Consider `CC(C)OC(=O)Cc1nnc2cc(Cl)ccc2n1`, for which the “% Inhibition” value was determined as 1% and the Z score is reported as -0.19.

As to `O=C(CCCC(=O)N1CC[C@H](OCC2CC2)C1)c1ccccc1`, the “% Inhibition” value is on record as -21% and the Z score came to 3.3.

Consider `CN(C)C(=O)[C@H](NC(=O)c1cc(Cl)c2c(c1)OCCCO2)c1ccccc1`, for which the “% Inhibition” value is -34% and the Z score was 4.01.

As for `COc1cc(NC(=O)N2C[C@@H](F)C[C@H]2C(=O)N2CCc3ccccc3C2)cc(OC)c1`, the “% Inhibition” value is -9% and the Z score is 1.04.

Turning to `CCOC(=O)c1cc2n(n1)C[C@@](C)(C(=O)NCCC(C)C)N(c1ccc(C)cc1C)C2=O`, the “% Inhibition” value is -5% and the Z score is given as 0.58.

In the case of `O=C(Cn1cnc2c(cnn2-c2cccc(Cl)c2)c1=O)N1CCC(Cc2ccccc2)CC1`, the “% Inhibition” value worked out at 7% and the Z score is recorded as -0.93.

Take `CN1CCN(CCOc2ccc(NC(=O)c3ncc4c(F)cccn34)cc2)CC1`: the “% Inhibition” value was -10% and the Z score is 1.41.

Turning to `Cn1cc(C(=O)N2CCCOCC2)c(C(F)F)n1`, the “% Inhibition” value is on record as -16% and the Z score amounted to 1.85.

On to `O=C(NC[C@@H](O)CCc1ccccc1)c1ccc(O)c(Cl)c1`, for which the “% Inhibition” value was 4% and the Z score is -0.74.

As for `Cc1cc(=O)n(CCN(C)CCc2scnc2C)c(=O)[nH]1`, the “% Inhibition” value is recorded as -14% and the Z score turned out to be 1.3.

Regarding `CC1(C)CN(CC(=O)N2CCCC2)c2ccc(S(=O)(=O)Nc3cccnc3)cc21`, the “% Inhibition” value came to 3% and the Z score is -0.38.

For the molecule `C=CCNC(=O)[C@@H](NC(=O)c1cccc(OC)c1)C1CCN(C(=O)c2ccc(C)cc2)CC1`, the “% Inhibition” value is on record as -14% and the Z score is 1.28.

Regarding `CC(C)n1cc([C@H](C)NC(=O)c2cc3n(n2)CCC3)cn1`, the “% Inhibition” value is listed as -6% and the Z score worked out at 0.98.

For the molecule `O=C1NCCN1C(=O)N[C@H]1CC[C@H](Oc2cnccn2)CC1`, the “% Inhibition” value is -2% and the Z score is 0.25.

For the molecule `CN1CCCC(C)(C)[C@@H]1CNC(=O)NCc1nccn1C(F)F`, the “% Inhibition” value is recorded as -8% and the Z score amounted to 0.9.

For the molecule `CC(C)(C)OC(=O)CCc1cccnc1C(=O)O`, the “% Inhibition” value is listed as -18% and the Z score is listed as 1.85.

Take `CCn1c(C[C@H]2CCN(S(=O)(=O)c3cc(F)cc(F)c3)C2)nc2cccnc21`: the “% Inhibition” value is listed as -4% and the Z score is 0.38.

For the molecule `O=S(=O)(C[C@@H]1C[C@H]2COC[C@@H]2O1)NC1COc2ccccc2C1` (some centres not stated), the “% Inhibition” value is -9% and the Z score worked out at 0.94.

For `Cc1cc(F)c(CNC(=O)c2coc3c2C(=O)NCCC3)c(F)c1`, the “% Inhibition” value is reported as -13% and the Z score came to 2.62.

For `COCCN1C(=O)C[C@H](Nc2ccc3c(c2)CCC3)C1=O`, the “% Inhibition” value was 36% and the Z score is given as -1.13.

For `C[C@H]1c2ccc(F)cc2CCN1CC(=O)N1CCCC1`, the “% Inhibition” value was -7% and the Z score is given as 1.34.

As to `CCCNC(=O)N1CCC[C@H](N(CCCN2CCCC2)C(=O)C(C)C)C1`, the “% Inhibition” value is -1% and the Z score stood at 0.08.

`c1cc(CN2CCC[C@H](Nc3ccc4c(c3)OCCO4)C2)c2ccncc2c1`: the “% Inhibition” value is listed as -7% and the Z score was found to be 1.

With `COC(=O)[C@@H](NC(=O)Cc1csc(C)n1)C(C)(C)C`, the “% Inhibition” value is reported as -14% and the Z score was 1.77.

As to `Cc1ccc(F)c(NC(=O)c2sc(Nc3cccc(F)c3)nc2C)c1`, the “% Inhibition” value worked out at 5% and the Z score was -0.62.

For `Cc1ccc(F)cc1S(=O)(=O)N1CC(=O)N(C2CCCC2)C2(CCCCC2)C1`, the “% Inhibition” value is reported as -5% and the Z score was 0.72.

As to `CC[C@@H](Cn1cnc2c(c1=O)CC(C)(C)CC2)OC`, the “% Inhibition” value is -3% and the Z score is on record as 0.49.

On to `Cc1ccc(C(=O)N2CCCCCCN(C)C(=O)[C@@H]3CCC[C@@H]32)s1`, for which the “% Inhibition” value is on record as -8% and the Z score was found to be 1.37.

On to `O=C(COC(=O)c1cccc(S(=O)(=O)N2CCCc3ccccc32)c1)Nc1ccc2c(c1)OCO2`, for which the “% Inhibition” value is reported as -3% and the Z score worked out at 0.31.

For `COc1ccc(-c2csc(Nc3ncnc4ncccc34)n2)c(O)c1`, the “% Inhibition” value amounted to 28% and the Z score is given as -3.32.

With `CN(CC(=O)Nc1cccc(Cl)c1)C(=O)[C@@H]1COCCN1CC1CCC1`, the “% Inhibition” value is reported as -10% and the Z score came to 1.32.

For the molecule `Cc1nnc(CCNC(=O)Nc2cccc3c4c(oc23)CCCC4)s1`, the “% Inhibition” value is on record as 3% and the Z score is on record as -0.53.

As to `C[C@]1(O)CCN(c2ncccc2C(N)=O)C[C@H]1Cc1ccccc1`, the “% Inhibition” value was -7% and the Z score was found to be 1.06.

As for `O=C(O)Cn1nc(C2CC2)c2c(C(F)F)cc(-c3ccc(F)cc3)nc21`, the “% Inhibition” value worked out at 0% and the Z score is given as 0.06.

On to `O=C(NC1CC1)c1nc(-c2ccccn2)nc2c1OCCO2`, for which the “% Inhibition” value is -4% and the Z score stood at 0.46.
